In patent US20230372458A1, “ANTIVIRAL AGENT FOR COMBINED THERAPY OF COVID-19 (SARS-COV-2)” (priority 2020, published 2023):

System: COVID-19 (SARS-CoV-2)
Experiment: Clinical study of intravenous APR + oral FPV, oral FPV alone and intravenous APR alone in patients hospitalized with COVID-19, clinical status 4
Conditions: for Median clinical improvement, 2 points: ordinal scale of clinical improvement

SMILES: NC(=O)c1nc(F)cnc1O [FPV, 6-fluoro-3-hydroxy-2-pyrazinecarboxamide]
- Median SARS-CoV-2 elimination: 4.5 days
- Median body temperature normalization (<37° C.): 3 days
- Median clinical improvement, 2 points: 8 days
- Median clinical improvement, 2 points (listed as FVP): 8 days and 8.0 days

“And” between values parts separate entries of the source, which are not always exact repeats. Identical values can stand only once.
